The text below walks through data of the supplement of paper PMC10126150.

Sequences with one replicate were seen in a single cluster, so their values are uncertain.
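Further: ATP exposure 15 min at 22 °C before imaging.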

The data set concerns ATP. Description: switch fluorescence ratio, 500 uM ATP over buffer (Cy3 cluster intensity, sum of 5 cycles each) (fold (ratio)); higher = stronger signal-on switching upon ATP binding; sequences stand for … in TCGTCGGCAGCGTCAGATGTGTATAAGAGACAGTTTTTTTTTTTTTTTTTTTTTTTTT…TC. The conditions noted are these: aptamer strand: ATP DNA aptamer (quencher-CACCTGGGGGAGTATTGCGGAGGAAGG + anchor), 100 nM annealed; ATP concentration: 500 uM; one replicate. In a few lines:
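Five buffer/ATP imaging cycles were run on Cy3-labelled switching-strand clusters on a modified Illumina MiSeq flow-cell, with NaOH stripping and re-annealing between cycles. In each cycle, clusters annealed to 100 nM quencher-labelled ATP aptamer were imaged in selection buffer, then after 15 min with 500 uM ATP at 22 °C. Per cluster, the fluorescence ratio is summed target-cycle over summed buffer-cycle Cy3 intensity, averaged per switch-domain sequence. Only clusters within 100-1000 RFU were kept.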
As for GGCGTAATGC, the switch fluorescence ratio came out at 1.64.
On to CTGTCGGGC, for which the switch fluorescence ratio came out at 1.02.
As for TAGTTTTCCG, the switch fluorescence ratio stood at 1.02.
As for AAGGCATGCC, the switch fluorescence ratio was 0.965.
Take CTGGTTAAAT: the switch fluorescence ratio is 1.01.
In the case of TTAGGTGTGG, the switch fluorescence ratio was 0.973.
On to GTCATCTCGC, for which the switch fluorescence ratio turned out to be 1.06.
Next, ATGCGTTTGC: 0.983; ATGGTAGTA: 0.964.
Next, AGGGACTGCG: 0.984; AGAGCATCTT: 0.972; TAGCTTGTGT: 0.995.
Consider CGGACGTTTG, for which the switch fluorescence ratio is 0.98.
As for TGATCGTTT, the switch fluorescence ratio is 0.995.
As to AGACCAGAAG, the switch fluorescence ratio worked out at 0.976.
TCAGTCCGCT: the switch fluorescence ratio stood at 1.45.
As for GACTGTGGGG, the switch fluorescence ratio amounted to 0.986.
Turning to CGAACGTTAC, the switch fluorescence ratio was 3.67.
Consider ATGCGAGGGC, for which the switch fluorescence ratio was 1.04.
Regarding GGCTCCGATT, the switch fluorescence ratio worked out at 1.77.
Take GATTTACAT: the switch fluorescence ratio was found to be 1.02.
As for CTGAACATCC, the switch fluorescence ratio came to 1.11.
Turning to GGGGACAGTA, the switch fluorescence ratio amounted to 0.976.
Take CTCATCGTAC: the switch fluorescence ratio worked out at 1.64.
On to TTCATGGGCA, for which the switch fluorescence ratio was determined as 0.97.
On to AATTTGGGAT, for which the switch fluorescence ratio was 1.
TGAGAACACT: the switch fluorescence ratio worked out at 1.02.
TTAGAATCAG: the switch fluorescence ratio stood at 0.969.
ATCAAGCAT: the switch fluorescence ratio came out at 1.03.
Consider TCTAGGAAGC, for which the switch fluorescence ratio amounted to 1.06.
Next, CAGTAGTCCG: 1.05; GCCTTATAA: 0.993; AAACGTTATG: 1.03.
For ATTCGACTAG, the switch fluorescence ratio turned out to be 0.945.
Regarding TTTCCTATTC, the switch fluorescence ratio is 1.03.
The result for CCTGGTTGCT reads 0.977; that for CAGCTCACGT, 1.05; that for AATGGGGCG, 0.985.
Consider GTAGCGAGCG, for which the switch fluorescence ratio was 0.962.
Turning to ATACGGTGTC, the switch fluorescence ratio was determined as 0.931.
With AGTAATTCGA, the switch fluorescence ratio amounted to 1.06.
As to TGAGGATCTT, the switch fluorescence ratio came out at 1.
In the case of ATCTGTGCAT, the switch fluorescence ratio was determined as 1.02.
In the case of GGAATTGTTA, the switch fluorescence ratio stood at 0.997.
The result for TAAACGTCAT reads 1.1; that for CTAAGGCTAA, 1.02; that for TTGGCCTTCA, 1.32.
On to CCAGTGAGAA, for which the switch fluorescence ratio amounted to 1.02.
GCGGCACTCC: the switch fluorescence ratio amounted to 2.65.
Turning to CACTTCGCCT, the switch fluorescence ratio amounted to 1.22.
As to GAGTACTCCG, the switch fluorescence ratio turned out to be 1.03.
Next, AATTACCGGA: 0.989; ACACGGTATT: 1.15.
In the case of CATTGTGTAG, the switch fluorescence ratio was found to be 1.
The result for TTTGTTAAAG reads 0.987; that for CAGTGTTAGT, 0.993; that for CGTTCGTGC, 1.09.
As to AGTACAGAGG, the switch fluorescence ratio worked out at 0.987.
With GGCAAATGGC, the switch fluorescence ratio stood at 0.995.
The result for CAGGTGCTCG reads 1.02.
The result for ACAGGACATG reads 1.04; that for CCGTTTGTGA, 1.06; that for GGAATCAGT, 1.05.
Consider GAAGATGTGT, for which the switch fluorescence ratio came to 1.01.
AAGTAAGATG: the switch fluorescence ratio was 0.954.
With GCGGATTCGT, the switch fluorescence ratio amounted to 0.959.
On to CCTCGCGGTG, for which the switch fluorescence ratio was determined as 2.19.
The result for AGTCATGCCT reads 1.01; that for GAAAAGTCAG, 1.06; that for GACGGGACAA, 1.3.
As for CCAGACCCGT, the switch fluorescence ratio is 1.07.
In the case of ATCACCGTTC, the switch fluorescence ratio was found to be 1.05.
The result for AGCCGAGATT reads 1.01.
As for TTGAAGAATC, the switch fluorescence ratio was 1.04.
Regarding AGATACTGGG, the switch fluorescence ratio is 1.07.
Take CGGCGATCCC: the switch fluorescence ratio was found to be 1.01.
TCAACGTTG: the switch fluorescence ratio is 0.963.
Regarding ATCCGGTGGC, the switch fluorescence ratio was 1.06.
